The full ranking holds about 110,000 compounds; the median of “z-score” is about -0.1, and the highest 2% start at about 2. This is one part of the list.

The target in the test is Metabotropic glutamate receptor 8 (Rattus norvegicus) (UniProt P70579). The experiment in a line: rat mGluR8 modulators via GIRK flux, primary screen, cell-based, thallium flux, HTS (AID 488969). Conditions: HEK293 rat mGluR8, GIRK (G protein-gated inwardly rectifying potassium channel) thallium flux, FluoZin2; at 10 µM; stronger effect = higher value; submaximal glutamate (EC20) added with thallium.
Chain of UniProt P70579 (P70579 whole entry, looked up): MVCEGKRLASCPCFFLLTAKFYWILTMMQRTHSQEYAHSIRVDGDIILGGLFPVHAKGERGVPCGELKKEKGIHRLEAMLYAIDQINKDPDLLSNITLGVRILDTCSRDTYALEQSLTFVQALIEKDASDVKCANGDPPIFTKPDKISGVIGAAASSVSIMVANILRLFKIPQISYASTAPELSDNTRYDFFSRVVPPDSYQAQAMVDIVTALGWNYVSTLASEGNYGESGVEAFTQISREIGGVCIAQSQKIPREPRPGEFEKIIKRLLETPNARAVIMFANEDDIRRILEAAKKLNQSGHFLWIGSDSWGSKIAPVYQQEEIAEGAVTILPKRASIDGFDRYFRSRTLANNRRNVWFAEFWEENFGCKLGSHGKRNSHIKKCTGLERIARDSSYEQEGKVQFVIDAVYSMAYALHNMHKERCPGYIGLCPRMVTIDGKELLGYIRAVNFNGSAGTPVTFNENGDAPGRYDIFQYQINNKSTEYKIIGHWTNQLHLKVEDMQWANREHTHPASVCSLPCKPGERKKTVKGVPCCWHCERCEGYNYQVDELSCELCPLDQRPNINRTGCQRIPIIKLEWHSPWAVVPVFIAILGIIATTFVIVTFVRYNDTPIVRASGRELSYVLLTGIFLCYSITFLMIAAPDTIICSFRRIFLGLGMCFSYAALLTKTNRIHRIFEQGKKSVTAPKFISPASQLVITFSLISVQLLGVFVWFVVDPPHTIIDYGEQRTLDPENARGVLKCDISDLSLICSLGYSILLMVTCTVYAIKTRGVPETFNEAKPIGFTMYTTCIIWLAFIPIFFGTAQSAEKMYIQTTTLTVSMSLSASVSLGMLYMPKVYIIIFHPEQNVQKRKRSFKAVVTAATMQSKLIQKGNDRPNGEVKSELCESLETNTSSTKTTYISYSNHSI
The molecule `COC(=O)Sc1nnc(-c2ccc(Br)cc2)o1` gave a z-score of -0.575. Molecule `Cc1cnc(NC(=O)C(C)N2C(=O)C3CC=CCC3C2=O)s1` (stereo unspecified) showed a z-score of 0.0125. In turn, `COc1cc(C2c3c(n[nH]c3C)C(=O)N2c2ccc(Br)cc2)ccc1O` (stereo unspecified) came in with a z-score of -1.36. Under `CCSCCOC(=O)C1=C(C)NC(=O)NC1c1cccc(OC)c1OC` (stereo unspecified) stands -0.111; under `CCCCCCC1CCC(C(=O)NC(CCSC)C(=O)NC(C(=O)OC)C(C)C)CC1` (stereo unspecified), 0.478; under `Cc1ccc(C)c(NC(=O)/C(C#N)=C/c2ccc(Sc3nncn3C)c([N+](=O)[O-])c2)c1`, -0.0512. Under `CC1CCN(C(=O)c2ccc(S(=O)(=O)Cc3ccccc3F)c([N+](=O)[O-])c2)CC1` stands -0.14; under `Cc1ccc(S(=O)(=O)N2CCN(S(=O)(=O)N3CCCCC3)CC2)c(C)c1`, 0.206.

`CSCCC(C(=O)NCc1cccs1)N1C(=O)c2ccccc2C1=O` (stereo unspecified) had a z-score of -0.0636. The result for `O=C(Nc1ccncc1)c1cc2ccccc2o1` reads 0.226; that for `Cc1ccc(S(=O)(=O)n2nc(-c3ccc(Cl)cc3)nc2NCc2ccco2)cc1`, -0.393; that for `CCCOc1ccccc1NC(=O)/C=C/C(N)=O`, -0.22.

In turn, `O=C(/C(=C/O)N=Nc1ccccc1)c1ccncc1` displayed a z-score of -0.489.

In turn, `CCSc1nnc2c(n1)OC(C)(C)Nc1ccccc1-2` registered a z-score of 0.207. Regarding `CCOc1cc(CNc2ccc(O)cc2)cc(Br)c1OCc1ccccc1F`, the z-score was -0.0546. Molecule `Cc1nc2cc(NC(=O)N3CCN(c4ccccn4)CC3)ccc2o1` came in with a z-score of -0.0397. The result for `Cc1cc(-c2ccccc2)c2c(=O)[nH][nH]c2n1` reads 0.00889.

The molecule `COc1ccc(OC)c(-c2cc(C(=O)N3CCc4ccccc4C3)no2)c1` returned a z-score of 0.245. In turn, `C/C(=N\NC(=O)c1cc(C2CC2)nc2ccccc12)c1ccc(C)s1` had a z-score of -0.135. Under `CCCC(=O)OCCNc1cc(Sc2nc3ccccc3[nH]2)c2nonc2c1[N+](=O)[O-]` stands -0.682. The result for `Cc1ccc(S(=O)(=O)NC2=NCN(CCOC(=O)c3ccccc3)CN2)cc1` reads 0.00239; that for `O=S1(=O)CC=C(CSc2nc3ccccc3[nH]2)C1`, 0.118.

As to `Fc1cccc2sc(N3CCOCC3)nc12`, the z-score amounted to 0.0378.

With `CC1=CC(C)(C)N(C(=O)C(C)N2C(=O)c3ccccc3C2=O)c2ccc(C)cc21` (stereo unspecified), the z-score came out at 0.526. Under `Cc1cc(Cl)ccc1NC(=O)CSc1nnc(-c2ccncc2)n1Cc1ccco1` stands 0.234. Turning to `Nc1cc(=O)nc(SCC(=O)NCc2ccccc2)n1CCc1ccccc1`, the z-score worked out at 0.182. With `O=C(NCCCN1CCCCC1)C1(S(=O)(=O)c2ccc(Cl)cc2)CC1`, the z-score worked out at 0.105. The result for `CCOc1cc(N2CCOCC2)c(OCC)cc1NC(=O)Cc1ccccc1OC` reads -0.332; that for `O=C(CSc1ncn[nH]1)Nc1nnc(-c2ccccc2)s1`, 0.104. `CC1CCc2ccccc2N1C(=O)c1cccs1` (stereo unspecified) had a z-score of -0.415. The molecule `COc1cc(N2CCCC2)c(OC)cc1/C=C(/C#N)c1cccc(F)c1` returned a z-score of -0.301. With `Cc1c(Cl)cccc1NC(=O)CN1C(=O)CSc2ncccc21`, the z-score is -0.338. `Cc1cccc(C(=O)Nc2nnc(SCC(=O)Nc3ccc4c(c3)oc3ccccc34)s2)c1`: the z-score was -0.242. The result for `Cc1nc(NC(=S)NC(=O)c2ccccc2)sc1C(=O)N(C)C` reads -0.185; that for `CCOc1ccccc1NC(=O)Cc1coc2cc(C)ccc12`, -0.0727; that for `O=C(Cn1nnc(-c2ccncc2)n1)NCCc1ccccc1`, 0.333.

With `CCn1c(SCC(=O)Nc2nccs2)nnc1-c1ccc(S(=O)(=O)N2CCCCCC2)cc1`, the z-score was -0.515. The molecule `O=C(c1cc(C2CC2)nc2ccccc12)N1N=C(C(F)F)CC1(O)C(F)F` (stereo unspecified) displayed a z-score of -0.303. Under `Cc1ccc(C2C(C(=O)c3sc(-c4ccccc4)nc3C)=C(O)C(=O)N2CCN(C)C)o1` (stereo unspecified) stands -0.493; under `CC(C)N(C(=O)CSc1nc2ccccc2n1-c1ccccc1)C(C)C`, -0.488. Under `CCCS(=O)(=O)N1CCCC(C(=O)NC2CCCC(C)C2C)C1` (stereo unspecified) stands -0.429; under `C/C(CC(=O)Nc1ccccn1)=N\NC(=O)C(=O)Nc1cccc(C)c1`, 0.00246. On to `CCNC(=S)NCCN1CCOCC1`, for which the z-score was -0.386. The result for `Cc1nnc(NC(=O)CSc2nnnn2Cc2ccccc2)s1` reads -0.0623; that for `CCCOc1ccc(NC(N)=O)cc1OCCC`, 0.631. Under `CCOc1c2ccc(C(=O)NCc3ccc(OC(F)(F)F)cc3)cc2nn1C` stands -0.395; under `Cc1ccc(N(CC(=O)NCC2CCCO2)C(=O)CCC(=O)Nc2ccccn2)cc1C` (stereo unspecified), -0.0898. For `Cc1ccc(C(=O)Nc2ccc(C)c(S(=O)(=O)N(C)C)c2)s1`, the z-score is -0.318. Consider `COc1cccc(-c2cc(C(F)(F)F)nc(-n3cccn3)n2)c1`, for which the z-score is -0.245. The molecule `Cc1ccc(C23CC4CC(CC(NC(=O)N5CCN(C)CC5)(C4)C2)C3)cc1` gave a z-score of 0.361. The molecule `Cc1cc(C)n2[nH]c(=O)c(N=Nc3ccccc3)c2n1` had a z-score of -0.498.

For the molecule `COc1cccc(CC(=O)n2nc(N)c3cc4ccc(OC)cc4nc32)c1`, the z-score is -0.18. `Cc1c(Cl)cnc(NC(=O)COC(=O)CCc2nc3ccccc3s2)c1Cl` yielded a z-score of -0.159.

As to `Cc1ccc(C2N(c3ccc(Cl)c(Cl)c3)C(=O)C3CCCN32)o1` (stereo unspecified), the z-score was -0.238. The result for `CN(C)c1ccnc(Oc2ccc(C(C)(C)C)cc2)c1C#N` reads -0.212; that for `CC(=O)C1=NN(c2ccccc2)C(c2cccs2)N1c1ccccc1` (stereo unspecified), -0.909. The result for `CCCCc1c(O)nc(SCC(=O)N2CCCCC2)n(-c2ccccc2C)c1=O` reads -0.736. Under `CC(C)(C)C(=O)NC(=C(Cl)Cl)P(=O)(O)O` stands -0.239; under `COc1ccc(CNC(=O)C2CSC(=O)C2)cc1` (stereo unspecified), -0.333. `C=CCN1C(=O)CSc2ccc(C(=O)NCCC3=CCCCC3)cc21` returned a z-score of -0.609. The result for `CCCCCCCCCC(=O)N/N=C/c1ccc(C)s1` reads -0.109; that for `CCC(CC)C(=O)Nc1cc(C(=O)NCCc2ccccc2)ccc1Cl`, 0.201; that for `Cc1ccc(-c2nn(-c3ccccc3)cc2/C=N/NS(=O)(=O)c2ccccc2)cc1`, -0.324. Under `CC(=O)NC(=O)NC1CSCC1OC(C)=O` (stereo unspecified) stands 0.477. The result for `Cc1c(C(c2cc3c(cc2Br)OCO3)c2c(C)n(C)n(-c3ccccc3)c2=O)c(=O)n(-c2ccccc2)n1C` reads -0.323.

In the case of `COc1ccc(C(CC(=O)O)NC(=O)OC(C)(C)C)cc1` (stereo unspecified), the z-score was -0.0119. For `COCc1cc(=O)n2[nH]c(C(F)(F)F)nc2n1`, the z-score was -0.0087. Take `Cc1cc(C)n(CC(O)CN(c2ccccc2)S(=O)(=O)c2ccc3ccccc3c2)n1` (stereo unspecified): the z-score was -0.224. Under `CCOC(=O)C(CCC(=O)O)(CCC(C)C)c1csc(N)n1` (stereo unspecified) stands 0.133; under `O=C(Nc1ccc2c(c1)C(=O)N(CC1CCCO1)C2=O)c1ccc(Cl)c(Cl)c1` (stereo unspecified), -0.194. As for `O=C(NNc1c2ccccc2nc2ccccc12)c1ccc(O)cc1`, the z-score was found to be 2.21. In turn, `COc1ccccc1OCc1ccc(C(=O)N2N=C(C(F)F)CC2(O)C(F)F)o1` (stereo unspecified) registered a z-score of -0.554. With `Cc1ccccc1N1C(S)=C(C#N)C(=O)NC12CCCCC2`, the z-score stood at 1.53. Under `Cc1ccc(C)c(N/C=C(\C#N)c2nc3ccccc3o2)c1` stands 0.0427; under `O=C(Cc1ccccc1)Nc1ccccc1C(=O)O`, -1.27. The result for `COc1ccc(C(=O)Cn2c(Br)nc3c2c(=O)n(C)c(=O)n3C)cc1OC` reads -0.137; that for `Cc1ccc2c(c1)c1c(n2CC(O)CN2C(=O)CNC2=O)C(=O)CCC1` (stereo unspecified), 0.0317; that for `COc1ccc(C)cc1S(=O)(=O)N(CC(=O)O)c1ccccc1`, 0.0223. Consider `O=C(c1noc2c1CCCC2)N1CCN(Cc2ccccc2)CC1`, for which the z-score was -0.175.

Turning to `Cn1c(SCC(=O)N2CCN(c3ccccc3)CC2)nnc1-c1c[nH]c2ccccc12`, the z-score is -0.513. `CC1(C)CC(=O)C(/C=N/c2ccccn2)=C(O)C1` showed a z-score of 0.439. On to `CCCOc1ccc2ccccc2c1/C=N/n1cnnc1`, for which the z-score is -0.492.

`CCOC(=O)C1=C(C)N=C2c3ccccc3C(=O)C2C1c1ccc(Cl)cc1` (stereo unspecified) yielded a z-score of 0.0824. The result for `Cc1ccccc1-c1nnc(SCc2ccccc2F)o1` reads -0.891; that for `COC(=O)c1cc2ccsc2n1Cc1nc(-c2ccc(Cl)cc2)oc1C`, 0.126; that for `O=C(NCCCN1CCc2ccccc2C1)Nc1ccc(Cl)cc1`, 0.384. Under `Cc1cccc(OCC(=O)Nc2cccc3nsnc23)c1` stands 0.0699; under `CC1(C)Cc2ccccc2-c2c1c(=O)n(-c1ccccc1)c1nnnn21`, 0.232.

As for `CCCCCn1c(N2CCN(Cc3ccccc3)CC2)nc2c1c(=O)[nH]c(=O)n2C`, the z-score is -0.284.

In turn, `Cc1[nH]c2ccccc2c1Cc1n[nH]c(=S)o1` yielded a z-score of -0.396.

Take `CSCCC(NC(=O)c1c(C)oc2c1CCCC2)C(=O)O` (stereo unspecified): the z-score was -0.103. Under `CCOC(=O)C1C(=O)CC(C)(O)C(C(=O)OCC)C1c1ccc(OC)cc1` (stereo unspecified) stands -0.0838; under `CCCC1(C(=O)OCC)NC(c2ccc(OC)cc2OC)C2C(=O)N(c3ccccc3)C(=O)C21` (stereo unspecified), 0.102. Turning to `Cc1cc(/C=N\NC(=O)CC(=O)NC2CCCCC2)c(C)n1-c1cccc(Cl)c1Cl`, the z-score was -0.438.

As for `COc1ccccc1NC(=O)CCC(=O)O`, the z-score stood at 0.083. Under `CCOC(=O)c1cccc(NC(=O)c2cncc(Br)c2)c1` stands -0.526; under `Cc1cccc(NC(=O)c2ccc(-n3ccnc3)nc2)c1`, -0.175. As to `CC(=O)NC1=NN(C(C)=O)C(C)(c2ccc(C)cc2)S1` (stereo unspecified), the z-score is -0.042. The result for `O=C(COC(=O)CCCOc1ccc(Cl)cc1Cl)NCc1ccc(F)cc1` reads -0.191; that for `CCOc1ccc(NC(=O)c2oc3ccccc3c2NC(=O)CC)cc1`, 0.0261; that for `Nc1ncnc2nc(SCC(=O)N3CCN(c4ccccc4)CC3)[nH]c12`, -0.237. The result for `COc1ccccc1OCCCCOc1ccccc1C(C)=O` reads -0.231; that for `CN1CCN(c2cc(N3CCc4ccccc4C3)c(F)cc2[N+](=O)[O-])CC1`, 0.456. With `O=C(c1ccccc1)c1c[nH]c2cc3c(cc2c1=O)OCO3`, the z-score is -0.0651. Under `CCc1ccc(N(CC(=O)NC2CCCCC2)S(=O)(=O)c2c(C)noc2C)cc1` stands 0.0724. `CCCC(O)(CCN1CCCCC1)c1ccc(OCC)cc1` (stereo unspecified) yielded a z-score of 0.811.

With `O=C(CCS(=O)(=O)c1cc(Br)cc2c1N(C(=O)C1CC1)CC2)NCC1CCCO1` (stereo unspecified), the z-score was 0.285. `Cc1nc(C(C)(C)O)n(-c2ccccc2)n1` showed a z-score of -0.0441. For the molecule `COCCCNC(=S)NC(=O)c1ccc([N+](=O)[O-])cc1`, the z-score stood at 0.847. Under `Cc1ccc(NC(=O)CSc2nc(NS(=O)(=O)c3ccccc3)cc(=O)[nH]2)cc1` stands -0.169; under `COc1cc(NC(=O)C2CCN(S(=O)(=O)c3cnc[nH]3)CC2)cc(OC)c1OC`, -0.49.
